# Test results from a collection of fitness landscapes (doi:10.1126/science.1257360).
# The list shows a part of the results.
# B1: PhoQ; a variant is named by its letters at X, in order, P23837 (parent)
# chain: MKKLLRLFFPLSLRVRFLLATAAVVLVLSLAYGMVALIGYSVSFDKTTFRLLRGESNLFYTLAKWENNKLHVELPENIDKQSPTMTLIYDENGQLLWAQRDVPWLMKMIQPDWLKSNGFHEIEADVNDTSLLLSGDHSIQQQLQEVREDDDDAEMTHSVAVNVYPATSRMPKLTIVVVDTIPVELKSSYMVWSWFIYVLSANLLLVIPLLWVAAWWSLRPIEALAKEVRELEEHNRELLNPATTRELTSLVRNLNRLLKSERERYDKYRTTLTDLTHSLKTPLXXLQXXLRSLRSEKMSVSDAEPVMLEQISRISQQIGYYLHRASMRGGTLLSRELHPVAPLLDNLTSALNKVYQRKGVNISLDISPEISFVGEQNDFVEVMGNVLDNACKYCLEFVEISARQTDEHLYIVVEDDGPGIPLSKREVIFDRGQRVDTLRPGQGVGLAVAREITEQYEGKIVAGESMLGGARMEVIFGRQHSAPKDE
# Variants of: B1
# Test: enrichment ratio after two sorts for PhoP signalling (ratio (wild type AVST 3.29)); higher = more functional
# Conditions: with PhoP (E. coli)
row,Variant,enrichment ratio
1,MMNP,≤ 0.25
2,VSHS,≤ 0.25
3,PQCA,≤ 0.25
4,TPML,≤ 0.25
5,TYGK,≤ 0.25
6,EIFA,≤ 0.25
7,TARH,≤ 0.25
8,LESC,≤ 0.25
9,DMGE,≤ 0.25
10,MMHW,≤ 0.25
11,LRRH,≤ 0.25
12,RCLI,≤ 0.25
13,LWYF,≤ 0.25
14,KMNT,≤ 0.25
15,ASDF,≤ 0.25
16,YVLH,0.392
17,RSEF,≤ 0.25
18,WYKY,≤ 0.25
19,FHQG,≤ 0.25
20,YAWE,≤ 0.25
21,YTSG,≤ 0.25
22,PAFV,≤ 0.25
23,ISLC,1.87
24,NISN,0.755
25,EYEK,≤ 0.25

row,Variant,enrichment ratio
1,TRRE,≤ 0.25
2,ENVM,≤ 0.25
3,ITSC,≤ 0.25
4,AKIH,7.98
5,SIQR,4.31
6,RELF,≤ 0.25
7,RPPT,≤ 0.25
8,PERL,≤ 0.25
9,IAMP,≤ 0.25
10,WEPD,≤ 0.25
11,WCYN,≤ 0.25
12,NQTR,≤ 0.25
13,TEWD,13
14,AHNA,≤ 0.25
15,HNLG,≤ 0.25
16,LTMD,≤ 0.25
17,YEMM,16.1
18,ACFY,≤ 0.25
19,PYND,≤ 0.25
20,FHAN,≤ 0.25
21,VCCY,≤ 0.25
22,HYSE,≤ 0.25
23,HTFV,≤ 0.25
24,GENH,≤ 0.25
25,LSHP,≤ 0.25

row,Variant,enrichment ratio
1,SLRR,≤ 0.25
2,SSLY,8.15
3,LESI,≤ 0.25
4,EFRR,≤ 0.25
5,HMRL,≤ 0.25
6,RLDL,≤ 0.25
7,DICY,≤ 0.25
8,RCIS,≤ 0.25
9,DRGR,≤ 0.25
10,RTDM,≤ 0.25
11,LGVW,≤ 0.25
12,FLWM,≤ 0.25
13,EASY,≤ 0.25
14,TSMR,0.767
15,YWSA,≤ 0.25
16,MVGT,≤ 0.25
17,AKIV,9.06
18,MSLY,0.424
19,HQAC,≤ 0.25
20,NRHY,≤ 0.25
21,KAFY,≤ 0.25
22,SNFC,≤ 0.25
23,WVVR,≤ 0.25
24,YTNL,≤ 0.25
25,KYQY,≤ 0.25

row,Variant,enrichment ratio
1,KKPR,≤ 0.25
2,QTWT,≤ 0.25
3,GQLE,14.3
4,TAFW,≤ 0.25
5,IHQY,≤ 0.25
6,RFWC,≤ 0.25
7,FDDE,≤ 0.25
8,RFSS,≤ 0.25
9,EMCV,≤ 0.25
10,INEY,≤ 0.25
11,PVYI,≤ 0.25
12,SNMC,6.92
13,EKLT,≤ 0.25
14,NANW,≤ 0.25
15,STIS,8.13
16,KKQY,≤ 0.25
17,IQVP,≤ 0.25
18,YFRF,≤ 0.25
19,DRNL,2.65
20,KDLY,≤ 0.25
21,RMDP,≤ 0.25
22,FIKR,≤ 0.25
23,TFQR,0.827
24,SSTE,1.25
25,SWWT,≤ 0.25

row,Variant,enrichment ratio
1,NKFR,≤ 0.25
2,IGFK,≤ 0.25
3,VICD,≤ 0.25
4,QQIH,≤ 0.25
5,AYRI,≤ 0.25
6,AFEW,≤ 0.25
7,STRL,≤ 0.25
8,PMYG,≤ 0.25
9,DFWV,≤ 0.25
10,GAEW,≤ 0.25
11,GLMN,≤ 0.25
12,RPTN,≤ 0.25
13,RLNW,≤ 0.25
14,MAGQ,3.61
15,GDVM,28.9
16,MDAT,25.1
17,WFPP,≤ 0.25
18,GPII,≤ 0.25
19,WPYI,≤ 0.25
20,MQPE,≤ 0.25
21,YYVN,≤ 0.25
22,KFGW,≤ 0.25
23,TVPK,≤ 0.25
24,GYHL,≤ 0.25
25,IQIM,≤ 0.25

row,Variant,enrichment ratio
1,PNPF,≤ 0.25
2,PCHY,≤ 0.25
3,GSNQ,≤ 0.25
4,VCME,≤ 0.25
5,MNYQ,≤ 0.25
6,QLVY,≤ 0.25
7,WLFY,≤ 0.25
8,GIER,5.58
9,LYNA,≤ 0.25
10,TQEW,≤ 0.25
11,FCDS,≤ 0.25
12,RGIH,≤ 0.25
13,TSEE,≤ 0.25
14,KASC,≤ 0.25
15,MVIW,≤ 0.25
16,YRES,≤ 0.25
17,PNRP,≤ 0.25
18,VANC,≤ 0.25
19,ISVK,≤ 0.25
20,TRRM,≤ 0.25
21,WKKI,≤ 0.25
22,MIEY,≤ 0.25
23,GWYF,≤ 0.25
24,NCST,1.6
25,PNTQ,≤ 0.25

row,Variant,enrichment ratio
1,SWID,≤ 0.25
2,ICGH,≤ 0.25
3,NQSS,≤ 0.25
4,LEQQ,≤ 0.25
5,YNPW,≤ 0.25
6,TIAF,0.285
7,WEST,≤ 0.25
8,YNRW,≤ 0.25
9,NCFP,≤ 0.25
10,PNRE,≤ 0.25
11,DPLL,≤ 0.25
12,DHSY,≤ 0.25
13,MEHD,≤ 0.25
14,WCGY,≤ 0.25
15,KKPP,≤ 0.25
16,FMRS,≤ 0.25
17,YREG,≤ 0.25
18,WYLL,≤ 0.25
19,VMYE,≤ 0.25
20,IFIS,≤ 0.25
21,AFWG,≤ 0.25
22,WMKV,≤ 0.25
23,VWIR,≤ 0.25
24,ISQG,≤ 0.25
25,NQNQ,≤ 0.25

row,Variant,enrichment ratio
1,YYCV,≤ 0.25
2,EIKY,≤ 0.25
3,TDCV,7.34
4,FFID,≤ 0.25
5,KAWF,≤ 0.25
6,NFGN,≤ 0.25
7,NQDD,≤ 0.25
8,LHKY,≤ 0.25
9,GAIV,≤ 0.25
10,TTNN,17.8
11,SPMQ,≤ 0.25
12,TLAA,3.45
13,VAAW,≤ 0.25
14,WSCS,≤ 0.25
15,GCRW,≤ 0.25
16,WRIG,≤ 0.25
17,QPHA,≤ 0.25
18,YCRI,≤ 0.25
19,TYKL,≤ 0.25
20,GIIM,1.99
